# Laboratory results from the supplement of paper PMC8728848.
# The list shows a part of the results.
# B1: LecB PA7 (Pseudomonas aeruginosa) (protein)
# chain: MATQGVFTLPANTRFGVTAFANSSATQTVKVLVNNETAATFTGQSTNNAVIGSQVLNSGGGGKVQIQVSVNGRSSDLVSAQVILANELNVALVGSEDSTDNDYNDAVVVINWPLG
# How the values were obtained:
# Assay in all cases: glycan array binding signal (z-score within array); higher = stronger binding
# Conditions in all cases: glycan notation: IUPAC condensed, linker removed
# [1] = molecular target: Fuc(a1-2)Gal(b1-4)GlcNAc(b1-3)Gal(b1-4)GlcNAc(b1-3)Gal(b1-4)GlcNAc
# How it was run: (§1)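 The Consortium for Functional Glycomics database supplied 3228 glycan arrays, of which those lacking an available protein sequence were dropped. The binding signal, a within-array Z-score, was averaged across arrays of the same protein sequence and across linkers. Negative scores can be read as non-binding.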
# [2] = molecular target: Fuc(a1-2)Gal(b1-4)GlcNAc(b1-3)GalNAc
# How it was run: as §1
# [3] = molecular target: Fuc(a1-2)Gal(b1-4)GlcNAc(b1-3)[Fuc(a1-2)Gal(b1-4)GlcNAc(b1-6)]GalNAc
# How it was run: as §1
# [4] = molecular target: Fuc(a1-2)Gal(b1-4)GlcNAc(b1-3)[Fuc(a1-3)[Gal(b1-4)]GlcNAc(b1-6)]Gal(b1-4)Glc
# How it was run: as §1
# [5] = molecular target: Fuc(a1-2)Gal(b1-4)GlcNAc(b1-6)GalNAc
# How it was run: as §1
# [6] = molecular target: Fuc(a1-2)Gal(b1-4)GlcNAc6S
# How it was run: as §1
# [7] = molecular target: Fuc(a1-2)Gal(b1-4)[Fuc(a1-3)]GlcNAc
# How it was run: as §1
# [8] = molecular target: Fuc(a1-2)Gal(b1-4)[Fuc(a1-3)]GlcNAc(b1-2)Man(a1-3)[Fuc(a1-2)Gal(b1-4)[Fuc(a1-3)]GlcNAc(b1-2)Man(a1-6)]Man(b1-4)GlcNAc(b1-4)[Fuc(a1-6)]GlcNAc
# How it was run: as §1
# [9] = molecular target: Fuc(a1-2)Gal(b1-4)[Fuc(a1-3)]GlcNAc(b1-2)[Fuc(a1-2)Gal(b1-4)[Fuc(a1-3)]GlcNAc(b1-4)]Man(a1-3)[Fuc(a1-2)Gal(b1-4)[Fuc(a1-3)]GlcNAc(b1-2)Man(a1-6)]Man(b1-4)GlcNAc(b1-4)GlcNAc
# How it was run: as §1
# [10] = molecular target: Fuc(a1-2)Gal(b1-4)[Fuc(a1-3)]GlcNAc(b1-3)Gal(b1-4)[Fuc(a1-3)]GlcNAc
# How it was run: as §1
# [11] = molecular target: Fuc(a1-2)Gal(b1-4)[Fuc(a1-3)]GlcNAc(b1-3)Gal(b1-4)[Fuc(a1-3)]GlcNAc(b1-3)Gal(b1-4)[Fuc(a1-3)]GlcNAc
# How it was run: as §1
# [12] = molecular target: Fuc(a1-2)Gal(b1-4)[Fuc(a1-3)]GlcNAc(b1-3)GalNAc
# How it was run: as §1
# [13] = molecular target: Fuc(a1-2)Gal(b1-4)[Fuc(a1-3)]GlcNAc(b1-3)[Neu5Ac(a2-6)Gal(b1-4)GlcNAc(b1-6)]Gal(b1-4)Glc
# How it was run: as §1
# [14] = molecular target: Fuc(a1-2)Gal3S(b1-4)GlcNAc
# How it was run: as §1
# [15] = molecular target: Fuc(a1-2)Gal6S(b1-3)GlcNAc
# How it was run: as §1
# [16] = molecular target: Fuc(a1-2)Gal6S(b1-3)GlcNAc6S
# How it was run: as §1
# Fuc(a1-2)Gal6S(b1-4)Glc = molecular target: Fuc(a1-2)Gal6S(b1-4)Glc
# How it was run: as §1
# [17] = molecular target: Fuc(a1-2)Gal6S(b1-4)Glc6S
# How it was run: as §1
# Fuc(a1-2)[Gal(a1-3)]Gal = molecular target: Fuc(a1-2)[Gal(a1-3)]Gal
# How it was run: as §1
# [18] = molecular target: Fuc(a1-2)[Gal(a1-3)]Gal(b1-3)GalNAc
# How it was run: as §1
# [19] = molecular target: Fuc(a1-2)[Gal(a1-3)]Gal(b1-3)GalNAc(b1-3)Gal(a1-4)Gal(b1-4)Glc
# How it was run: as §1
# [20] = molecular target: Fuc(a1-2)[Gal(a1-3)]Gal(b1-3)GlcNAc
# How it was run: as §1
# [21] = molecular target: Fuc(a1-2)[Gal(a1-3)]Gal(b1-3)GlcNAc(b1-2)Man(a1-3)[Fuc(a1-2)[Gal(a1-3)]Gal(b1-3)GlcNAc(b1-2)Man(a1-6)]Man(b1-4)GlcNAc(b1-4)GlcNAc
# How it was run: as §1
# [22] = molecular target: Fuc(a1-2)[Gal(a1-3)]Gal(b1-3)GlcNAc(b1-2)Man(a1-3)[Fuc(a1-2)[Gal(a1-3)]Gal(b1-3)GlcNAc(b1-2)Man(a1-6)]Man(b1-4)GlcNAc(b1-4)[Fuc(a1-6)]GlcNAc
# How it was run: as §1
# [23] = molecular target: Fuc(a1-2)[Gal(a1-3)]Gal(b1-3)GlcNAc(b1-3)GalNAc
# How it was run: as §1
# [24] = molecular target: Fuc(a1-2)[Gal(a1-3)]Gal(b1-3)GlcNAc(b1-6)GalNAc
# How it was run: as §1
# [25] = molecular target: Fuc(a1-2)[Gal(a1-3)]Gal(b1-4)Glc
# How it was run: as §1
# [26] = molecular target: Fuc(a1-2)[Gal(a1-3)]Gal(b1-4)GlcNAc
# How it was run: as §1
# [27] = molecular target: Fuc(a1-2)[Gal(a1-3)]Gal(b1-4)GlcNAc(b1-2)Man
# How it was run: as §1
# [28] = molecular target: Fuc(a1-2)[Gal(a1-3)]Gal(b1-4)GlcNAc(b1-2)Man(a1-3)[Fuc(a1-2)[Gal(a1-3)]Gal(b1-4)GlcNAc(b1-2)Man(a1-6)]Man(b1-4)GlcNAc(b1-4)GlcNAc
# How it was run: as §1
# [29] = molecular target: Fuc(a1-2)[Gal(a1-3)]Gal(b1-4)GlcNAc(b1-2)Man(a1-3)[Fuc(a1-2)[Gal(a1-3)]Gal(b1-4)GlcNAc(b1-2)Man(a1-6)]Man(b1-4)GlcNAc(b1-4)[Fuc(a1-6)]GlcNAc
# How it was run: as §1
# [30] = molecular target: Fuc(a1-2)[Gal(a1-3)]Gal(b1-4)GlcNAc(b1-3)GalNAc
# How it was run: as §1
# [31] = molecular target: Fuc(a1-2)[Gal(a1-3)]Gal(b1-4)GlcNAc(b1-3)[Fuc(a1-2)[Gal(a1-3)]Gal(b1-4)GlcNAc(b1-6)]GalNAc
# How it was run: as §1
# [32] = molecular target: Fuc(a1-2)[Gal(a1-3)]Gal(b1-4)GlcNAc(b1-6)GalNAc
# How it was run: as §1
# [33] = molecular target: Fuc(a1-2)[Gal(a1-3)]Gal(b1-4)[Fuc(a1-3)]Glc
# How it was run: as §1
# [34] = molecular target: Fuc(a1-2)[Gal(a1-3)]Gal(b1-4)[Fuc(a1-3)]GlcNAc
# How it was run: as §1
# [35] = molecular target: Fuc(a1-2)[Gal(a1-3)]Gal(b1-4)[Fuc(a1-3)]GlcNAc(b1-3)GalNAc
# How it was run: as §1
# [36] = molecular target: Fuc(a1-2)[Gal(a1-4)]Gal(b1-4)GlcNAc
# How it was run: as §1
# [37] = molecular target: Fuc(a1-2)[GalNAc(a1-3)]Gal
# How it was run: as §1
# [38] = molecular target: Fuc(a1-2)[GalNAc(a1-3)]Gal(b1-3)GalNAc(a1-3)[Fuc(a1-2)]Gal(b1-4)GlcNAc
# How it was run: as §1
# [39] = molecular target: Fuc(a1-2)[GalNAc(a1-3)]Gal(b1-3)GalNAc(b1-3)Gal(a1-4)Gal(b1-4)Glc
# How it was run: as §1
# [40] = molecular target: Fuc(a1-2)[GalNAc(a1-3)]Gal(b1-3)GlcNAc
# How it was run: as §1
# [41] = molecular target: Fuc(a1-2)[GalNAc(a1-3)]Gal(b1-3)GlcNAc(b1-2)Man(a1-3)[Fuc(a1-2)[GalNAc(a1-3)]Gal(b1-3)GlcNAc(b1-2)Man(a1-6)]Man(b1-4)GlcNAc(b1-4)GlcNAc
# How it was run: as §1
# [42] = molecular target: Fuc(a1-2)[GalNAc(a1-3)]Gal(b1-3)GlcNAc(b1-2)Man(a1-3)[Fuc(a1-2)[GalNAc(a1-3)]Gal(b1-3)GlcNAc(b1-2)Man(a1-6)]Man(b1-4)GlcNAc(b1-4)[Fuc(a1-6)]GlcNAc
# How it was run: as §1
# [43] = molecular target: Fuc(a1-2)[GalNAc(a1-3)]Gal(b1-3)GlcNAc(b1-3)GalNAc
# How it was run: as §1
binder,measurement,setting,value
B1,glycan array binding signal (z-score),[1],3.71
same,glycan array binding signal (z-score),[2],0.923
same,glycan array binding signal (z-score),[3],1.32
same,glycan array binding signal (z-score),[4],0.964
same,glycan array binding signal (z-score),[5],0.819
same,glycan array binding signal (z-score),[6],1.51
same,glycan array binding signal (z-score),[7],2.33
same,glycan array binding signal (z-score),[8],5.18
same,glycan array binding signal (z-score),[9],-0.08
same,glycan array binding signal (z-score),[10],4.93
same,glycan array binding signal (z-score),[11],4.08
same,glycan array binding signal (z-score),[12],-0.338
same,glycan array binding signal (z-score),[13],0.243
same,glycan array binding signal (z-score),[14],1.23
same,glycan array binding signal (z-score),[15],0.906
same,glycan array binding signal (z-score),[16],0.022
same,glycan array binding signal (z-score),Fuc(a1-2)Gal6S(b1-4)Glc,1.01
same,glycan array binding signal (z-score),[17],1.43
same,glycan array binding signal (z-score),Fuc(a1-2)[Gal(a1-3)]Gal,-0.071
same,glycan array binding signal (z-score),[18],-0.454
same,glycan array binding signal (z-score),[19],-0.43
same,glycan array binding signal (z-score),[20],-0.458
same,glycan array binding signal (z-score),[21],-0.145
same,glycan array binding signal (z-score),[22],0.145
same,glycan array binding signal (z-score),[23],-0.479
same,glycan array binding signal (z-score),[24],-0.488
same,glycan array binding signal (z-score),[25],-0.36
same,glycan array binding signal (z-score),[26],-0.44
same,glycan array binding signal (z-score),[27],-0.446
same,glycan array binding signal (z-score),[28],-0.375
same,glycan array binding signal (z-score),[29],0.222
same,glycan array binding signal (z-score),[30],-0.47
same,glycan array binding signal (z-score),[31],-0.458
same,glycan array binding signal (z-score),[32],-0.461
same,glycan array binding signal (z-score),[33],0.207
same,glycan array binding signal (z-score),[34],0.348
same,glycan array binding signal (z-score),[35],0.197
same,glycan array binding signal (z-score),[36],1.38
same,glycan array binding signal (z-score),[37],-0.237
same,glycan array binding signal (z-score),[38],-0.464
same,glycan array binding signal (z-score),[39],-0.491
same,glycan array binding signal (z-score),[40],-0.334
same,glycan array binding signal (z-score),[41],-0.372
same,glycan array binding signal (z-score),[42],0.199
same,glycan array binding signal (z-score),[43],-0.491
